Results on 2 molecules are retold here after patent US20240092866A1 (AVIRMAX BIOPHARMA, published 2024).

Assay [1] deals with T1, human VEGF-A165 (expressed in HEK293 cells, GeneScript Cat #Z03073) (human, UniProt P15692-4 27-191).
T1 construct: also called rhVEGF-A165; rhVEGF
T1 sequence (looked up): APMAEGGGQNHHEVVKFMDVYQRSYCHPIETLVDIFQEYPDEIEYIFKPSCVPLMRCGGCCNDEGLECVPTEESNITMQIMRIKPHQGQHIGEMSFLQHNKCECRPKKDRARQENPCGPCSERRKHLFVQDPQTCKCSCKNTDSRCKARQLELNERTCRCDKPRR
The assay can be described thus: ELISA, plate coated with rhVEGF-A165, detection with anti-human IgG1 Fc. As to the method:
The assay for determining binding affinity was performed. Briefly, purified from AAV2.N54-VEGF-Trap expressed VEGF-Trap was assayed for its binding affinity to rhVEGF. A 96-well plate was coated with rhVEGF-A₁₆₅ at 0.1 μg/mL at 2-8° C. overnight. The plate was washed 3×300 μL with washing buffer (0.05% Tween−20 in PBS, pH 7.3±0.1) and blocked with blocking buffer containing 1% casein for 120 min. […] Diluted (1:40,000) biotinylated rabbit anti-human IgG1 Fc antibody solution was added at 100 μL/well after 3×300 μL/well of washing buffer. Further incubation at 37±1° C. for 60 minutes and washing with 3×300 μL/well of washing buffer were performed. Finally, to each well, streptavidin-HRP, 1:40,000, was added at 100 μL/well and incubated at 37±1° C. for 60 minutes. The substrate TMB solution after 3×300 μL/well washing, was added and incubated at 37±1° C. for 15 minutes followed by stopping with stop solution 100 μL/well. The plate was read at 600 nm wavelength in a microplate reader (Molecular Device, Sunnyvale, CA).
On the technique in general: ELISA stands for enzyme-linked immunosorbent assay.

In assay [2] the target is T1, human VEGF-A165 (expressed in HEK293 …). The experiment in a line: Biacore SPR, aflibercept captured on protein A chip, VEGF-A165 as analyte. The method, then:
(§1) Interaction between AVMX-110 derived VEGF-Trap and human VEGF-A₁₆₅ was analyzed by the surface plasmon resonance (SPR) method.
(§2) VEGF-Trap protein was expressed by HEK293 cell transfected with expression vector, AAV2.N54-AMI120, and purified by a protein A affinity column chromatography. The eluate was neutralized and concentrated to the concentration of 4.31 mg/ml. Aflibercept was commercial product, which was diluted into 4 mg/ml. VEGF-A₁₆₅ was obtained from Genescript (GeneScript, Cat #Z03073, Nanjing China), which was reconstituted into 1 mg/ml. Working solution of each stock protein was prepared at 200 nM prior to experimentation. Molarity concentrations were calculated using MW: 115 kDa for VEGF-Trap and aflibercept, 45 kDa for VEGF-A₁₆₅. […] Binding kinetic simulation was analyzed with Biacore evaluation software.
(In general: In SPR one partner is held on a chip, and binding of the other changes the refractive index at the surface.)

Assay [3] shares this target. The experiment in a line: Biacore SPR, VEGF-Trap captured on protein A chip, VEGF-A165 as analyte. The method, then:
as §1, §2

“And” between values parts separate entries of the source, which are not always exact repeats. Equal entries are not always repeated.

B1: Aflibercept, commercial product (Eylea, Regeneron Pharmaceuticals, Tarrytown, NY) (Fc fusion)
chain: DTGRPFVEMYSEIPEIIHMTEGRELVIPCRVTSPNITVTLKKFPLDTLIPDGKRIIWDSRKGFIISNATYKEIGLLTCEATVNGHLYKTNYLTHRQTNTIIDVVLSPSHGIELSVGEKLVLNCTARTELNVGIDFNWEYPSSKHQHKKLVNRDLKTQSGSEMKKFLSTLTIDGVTRSDQGLYTCAASSGLMTKKNSTFVRVHEK[… human IgG1 Fc …]
notes: Bought commercial product; MW 115 kDa was used for molarity; also called commercial aflibercept; commercial VEGF-Trap
As usually defined, the Kd is the concentration at which binding is half-saturated. Low readings indicate higher affinity, high ones lower affinity. The koff is the rate constant with which the complex falls apart. Low values mean slow dissociation, high ones fast dissociation. What is called kon is the second-order rate constant of association. Read a high kon as fast association. Take B1: in assay [1], the Kd was 0.00686 µg/mL and 0.06 nM. In assay [2], this molecule yielded a Ka of 1.83e+10 M⁻¹, a dissociation constant Kd of 0.0545 nM, an off-rate constant (koff) of 0.000188 s⁻¹ and a kon of 3.45e+06 M⁻¹ s⁻¹.

B2: AAV2.N54-AMI120 derived VEGF-Trap (AVMX-110 derived VEGF-Trap), expressed in HEK293 cells and purified by protein A affinity chromatography (Fc fusion)
chain: DTGRPFVEMYSEIPEIIHMTEGRELVIPCRVTSPNITVTLKKFPLDTLIPDGKRIIWDSRKGFIISNATYKEIGLLTCEATVNGHLYKTNYLTHRQTNTIIDVVLSPSHGIELSVGEKLVLNCTARTELNVGIDFNWEYPSSKHQHKKLVNRDLKTQSGSEMKKFLSTLTIDGVTRSDQGLYTCAASSGLMTKKNSTFVRVHEK[… human IgG1 Fc …]
notes: no cleavage site is stated; also called AVMX-110 VEGF-Trap; AAV2.N54.120 derived VEGF-Trap
For the molecule B2, in assay [3], the Ka came to 3e+10 M⁻¹; the affinity, expressed as Kd, was 0.033 nM; the on-rate (kon) was 6.07e+06 M⁻¹ s⁻¹. Also, the Kd in assay [1] is 0.00863 µg/mL and 0.075 nM.
